# Laboratory results from PubChem BioAssay (NCATS).
# Inconclusive means that the source gave no clear call. Such entries were picked first, then a sample of the others. For some assays here: Potencies of inconclusive entries are left out as doubtful fits. Active and inactive are the calls of the source. The call rests on the fitted dose curve; in most records, active means well fitted curve in the direction sought with a large enough effect; inconclusive means small, poorly fitted or top-dose-only effect, or another doubt; inactive means no such curve, though single readings can be large; an effect the other way counts as inactive or inconclusive.
# Assays:
# [1] = qHTS for Inhibitors of Plasmodium falciparum (GB4) proliferation (AID 504315); further: nearly all actives have a fitted effect of over 50% in size; further: potency means the concentration at half of the fitted maximal effect; conditions: P. falciparum GB4 in erythrocytes, SYBR Green DNA, 72 h; activity change, negative = inhibition: at 6.7 µM (top of the series)
# Outline: (§1)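 Erythrocytes infected with P. falciparum line (0.3% parasitemia, 2.5% hematocrit final) incubated with compounds 72 h at 37 °C, 5% CO2; SYBR Green lysis buffer added, fluorescence read next day. Normalized to 0.29 uM artemisinin and DMSO.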
# [2] = qHTS for Inhibitors of Plasmodium falciparum (HB3) proliferation (AID 504318); further: nearly all actives have a fitted effect of over 60% in size; further: potency means the concentration at half of the fitted maximal effect; conditions: P. falciparum HB3 in erythrocytes, SYBR Green DNA, 72 h; activity change, negative = inhibition: at 7.21 µM (top of the series)
# Outline: as §1
# [3] = qHTS for Inhibitors of Plasmodium falciparum (CP250) proliferation (AID 504320); further: potency means the concentration at half of the fitted maximal effect; conditions: P. falciparum CP250 in erythrocytes, SYBR Green DNA, 72 h; series mostly up to 6.7 µM
# Outline: as §1
# [4] = molecular target: DNA polymerase iota (Homo sapiens) (UniProt Q9UNA4); test: qHTS for Inhibitors of Polymerase Iota: Confirmatory Assay for Cherry-picked Compounds (AID 720496); conditions: Pol iota primer extension, TAMRA/BHQ fluorescence; further: potency means the concentration at half of the fitted maximal effect
# Chain of UniProt Q9UNA4 (Q9UNA4 whole entry, looked up): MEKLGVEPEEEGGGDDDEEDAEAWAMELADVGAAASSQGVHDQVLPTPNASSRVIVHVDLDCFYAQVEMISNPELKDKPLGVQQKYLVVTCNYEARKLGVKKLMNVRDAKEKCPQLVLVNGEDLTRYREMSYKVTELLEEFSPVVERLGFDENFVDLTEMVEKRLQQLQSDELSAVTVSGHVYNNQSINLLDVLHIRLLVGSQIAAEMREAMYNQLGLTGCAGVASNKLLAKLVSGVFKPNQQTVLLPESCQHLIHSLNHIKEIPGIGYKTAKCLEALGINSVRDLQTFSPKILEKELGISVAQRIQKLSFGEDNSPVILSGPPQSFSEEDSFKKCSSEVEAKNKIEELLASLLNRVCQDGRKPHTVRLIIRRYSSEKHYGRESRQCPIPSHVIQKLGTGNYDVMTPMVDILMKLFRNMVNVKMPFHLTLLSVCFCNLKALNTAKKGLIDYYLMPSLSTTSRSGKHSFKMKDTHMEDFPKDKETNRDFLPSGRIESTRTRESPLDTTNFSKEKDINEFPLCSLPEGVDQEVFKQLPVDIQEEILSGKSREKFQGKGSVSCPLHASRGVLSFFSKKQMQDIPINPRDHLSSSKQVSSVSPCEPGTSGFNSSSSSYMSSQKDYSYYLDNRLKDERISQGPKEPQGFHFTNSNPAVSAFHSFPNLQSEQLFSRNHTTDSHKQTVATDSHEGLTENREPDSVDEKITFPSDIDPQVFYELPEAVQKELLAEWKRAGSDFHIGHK
# Outline: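 Recombinant human Pol iota (10 nM) was preincubated with compound for 15 min at room temperature, then 50 nM final primer/template substrate was added; the substrate carried a TAMRA-labeled reporter strand and a BHQ-2-quenched template. Fluorescence was read at 0 and 10 min.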
# [5] = qHTS for Inhibitors of Plasmodium falciparum (7G8) proliferation (AID 504316); further: nearly all actives have a fitted effect of over 65% in size; further: potency means the concentration at half of the fitted maximal effect; conditions: P. falciparum 7G8 in erythrocytes, SYBR Green DNA, 72 h; activity change, negative = inhibition: at 6.7 µM (top of the series)
# Outline: as §1
# [6] = molecular target: Vitamin D3 receptor (Homo sapiens) (UniProt P11473); test: qHTS for Inhibitors of the vitamin D receptor (VDR): Hit Validation in Primary Screen (AID 602199); conditions: VDR-coactivator inhibition assay, qHTS confirmation; further: potency means the concentration at half of the fitted maximal effect
# Chain of UniProt P11473 (P11473 whole entry, looked up, the tested form may be a part): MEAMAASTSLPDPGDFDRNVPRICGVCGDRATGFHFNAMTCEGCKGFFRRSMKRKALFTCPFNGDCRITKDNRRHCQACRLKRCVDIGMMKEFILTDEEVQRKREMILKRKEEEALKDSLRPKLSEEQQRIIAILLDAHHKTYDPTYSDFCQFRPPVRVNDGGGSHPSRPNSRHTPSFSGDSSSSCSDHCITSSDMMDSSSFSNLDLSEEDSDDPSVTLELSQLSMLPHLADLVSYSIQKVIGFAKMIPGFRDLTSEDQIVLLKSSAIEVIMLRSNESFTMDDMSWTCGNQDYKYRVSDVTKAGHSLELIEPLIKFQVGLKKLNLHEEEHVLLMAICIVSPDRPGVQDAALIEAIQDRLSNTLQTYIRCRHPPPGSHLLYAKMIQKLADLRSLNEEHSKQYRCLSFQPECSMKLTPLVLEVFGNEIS
# Outline: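 Fluorescence polarization (Ex 620/Em 688 nm) of Alexa 647-SRC2-3 peptide with 800 nM VDR and 5 uM LG19078. Compounds at several concentrations, 2 h at room temperature.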
# [7] = molecular target: Vitamin D3 receptor (Homo sapiens) (UniProt P11473); test: qHTS for Inhibitors of the vitamin D receptor (VDR): Hit Validation using a Fluorescein Assay (AID 602200); conditions: VDR-coactivator binding, fluorescein fluorescence polarization; series mostly up to 57.1 µM; further: potency means the concentration at half of the fitted maximal effect
# Outline: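 Fluorescence polarization: 1.5 uM VDR-LBD, 5 uM LG19078 and 5 nM fluorescein-labeled SRC2-3 peptide (final) with compounds, 2 h at room temperature. Read at Ex 495/Em 520 nm; peptide-only wells served as control.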
# [8] = qHTS for Inhibitors of the vitamin D receptor (VDR): Hit Validation using a Texas Red Assay (AID 602201); conditions: VDR coregulator binding, Texas Red fluorescence polarization, agonist-bound VDR ligand-binding domain; series mostly up to 57.1 µM; further: potency means the concentration at half of the fitted maximal effect
# Outline: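 Fluorescence polarization with 1.5 uM VDR-LBD, LG19078 and 7 nM Texas Red (final). After 2 hours at ambient temperature, read at Ex 595 nm/Em 615 nm.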
# [9] = molecular target: Vitamin D3 receptor (Homo sapiens) (UniProt P11473); test: qHTS for Inhibitors of the vitamin D receptor (VDR): Hit Validation using a Beta-Lactamase Assay (AID 602202); conditions: VDR beta-lactamase reporter cells, FRET ratio, cells co-treated with VDR agonist LG190178; series mostly up to 46.1 µM
# Outline: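 Stably transfected HEK293 cells expressing VDR-GAL4 DNA-binding domain fusion with UAS-driven beta-lactamase reporter, activated by agonist LG190178; compounds incubated 18 h, then FRET beta-lactam substrate 2 h; cleaved substrate read at 447 nm emission.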
# Tags describe the fitted curve by direction and shape.
smiles,measurement,setting,value
CC#CCN1c2ccccc2[C@]23C[C@@H](C(=O)OC)N(S(=O)(=O)c4ccc(C)cc4)C2=NC(C(=O)OC)=C(C(=O)OC)[C@H]13,Potency,[1],active: 1.69 µM
same,Potency,[2],"inconclusive [inhibitor, partial curve, poor fit]"
same,Potency,[3],"inconclusive [inhibitor, single point]"
COCC(=O)C(C(=O)OC)[C@H](CCc1ccccc1)NC(=O)OC (stereo not given in full),Potency,[1],inactive
same,Potency,[3],inactive
C=CCN1C=C2C(=O)C(C)(OC(=O)c3cnc4ccccc4n3)C(=O)C=C2C=C1/C=C/COC (stereo not given),Potency,[1],inactive
same,Potency,[3],inactive
same,Potency,[4],"inconclusive [inhibitor, partial curve]"
C=CCN1c2ccccc2[C@]23C[C@@H](C(=O)OC)N(C(=O)COCc4ccccc4)C2=NC(C(=O)OC)=C(C(=O)OC)[C@H]13,Potency,[5],inactive
C=CCOC(=O)NC(c1ccc(F)c(F)c1)C(C(=O)COC)C(=O)OC (stereo not given),Potency,[5],inactive
O=C1C2=C(C(=O)c3ccccc31)[C@H]1O[C@](c3ccsc3)(Cc3ccccc31)O2,Potency,[1],"inconclusive [inhibitor, single point]"
same,Potency,[2],active: 1.9 µM
same,Potency,[3],"inconclusive [inhibitor, single point]"
COC(=O)C1=C(C(=O)OC)[C@@H]2N(C)c3ccccc3[C@@]23C[C@@H](C(=O)OC)N(S(=O)(=O)c2ccc(OC)cc2)C3=N1,Potency,[5],"inconclusive [inhibitor, partial curve]"
CCN1C(=O)N[C@@H](c2cccc(F)c2)C(C(=O)OC)=C1C,Potency,[5],inactive
COCCN1C=C2C(=O)C(C)(OC(=O)c3cccs3)C(=O)C=C2C=C1CCCC(=O)OC (stereo not given),Potency,[1],inactive
same,Potency,[2],inactive
CC(C)=CCC12CC3[C@@H](O)C(C(=O)c4ccccc4)(C1=O)C(=O)C(CC=C(C)C)(C2=O)C3(C)C (stereo not given in full),Potency,[1],"inconclusive [inhibitor, partial curve, poor fit]"
same,Potency,[2],"inconclusive [inhibitor, single point]"
same,Potency,[3],"inconclusive [inhibitor, single point]"
C=CCOC(=O)N[C@H](c1ccco1)C(C(C)=O)C(C)=O,Potency,[1],inactive
same,Potency,[3],inactive
COC(=O)CCCC1=CC2=CC(=O)C(C)(OC(=O)c3cccs3)C(=O)C2=CN1C(CO)CO (stereo not given),Potency,[5],inactive
C=CCN1c2ccccc2[C@]23C[C@@H](C(=O)OC)N(S(=O)(=O)c4ccc(Br)cc4)C2=NC(C(=O)OC)=C(C(=O)OC)[C@H]13,Potency,[1],"inconclusive [inhibitor, single point]"
same,Potency,[2],"inconclusive [inhibitor, single point]"
same,Potency,[3],"inconclusive [inhibitor, partial curve, poor fit]"
CCCNC(=O)OC[C@H]1O[C@H](CCON=C2C[C@@H](O)[C@@H](O)[C@@H]3[C@H]4C(=O)N(CC)C(=O)[C@@H]4CC[C@H]23)C=C[C@H]1Oc1ccc(OC)cc1,Potency,[1],inactive
same,Potency,[2],"inconclusive [inhibitor, single point]"
COC(=O)CC=C[C@H](C)[C@@H](OCc1ccccc1Br)C(C)C,Potency,[1],inactive
same,Potency,[3],inactive
CC1(OC(=O)CCc2ccccc2)C(=O)C=C2C=C(C3CC3)OC=C2C1=O (stereo not given),Potency,[1],inactive
same,Potency,[2],inactive
same,Potency,[3],inactive
COCCN1C(=O)N(C)[C@@H](c2ccccc2)C(C(C)=O)=C1C,Potency,[1],inactive
same,Potency,[2],inactive
same,Potency,[3],inactive
CCCCC1=CC2=CC(=O)C(C)(OC(=O)CC)C(=O)C2=CN1CCCCO (stereo not given),Potency,[1],inconclusive [activator]
same,Potency,[2],inactive
CC1(OC(=O)C2CCCC2)C(=O)C=C2C=C(c3ccsc3)N(CCc3c[nH]c4ccccc34)C=C2C1=O (stereo not given),Potency,[1],inconclusive [activator]
same,Potency,[2],"inconclusive [inhibitor, single point]"
same,Potency,[6],"inconclusive [inhibitor, partial curve]"
same,Potency,[7],"inconclusive [inhibitor, partial curve]"
same,Potency,[8],"inconclusive [inhibitor, single point]"
same,Potency,[9],inactive
COC(=O)C1=C(C(=O)OC)[C@@H]2N(C)c3ccc(OC)cc3[C@@]23C[C@@H](C(=O)OC)N(C(=O)COCc2ccccc2)C3=N1,Potency,[1],inactive
same,Potency,[2],inactive
COc1cc2c(c(OC)c1OC)C1(c3ccccc3)CCCCCC1[C@@H]2NC(=O)C(F)(F)F (stereo not given in full),Potency,[1],inactive
same,Potency,[2],"inconclusive [inhibitor, single point]"
CCOC(=O)NN=C1C[C@@H](O)[C@@H](O)[C@@H]2[C@H]3C(=O)N(c4ccc(F)cc4F)C(=O)[C@@H]3CC[C@H]12,Potency,[1],inactive
same,Potency,[3],inactive
